Data from PMC6664820, “Novel natural and synthetic inhibitors of solute carriers SGLT1 and SGLT2” (Pharmacology Research & Perspectives, 2019).
Out of some 1,900 compounds screened, about 40 (2%) showed an effect of 50% or more. The list shows a part of the results.

The molecules below were run against human SGLT1 (hSGLT1) (human, UniProt P13866) (assay: primary screen, percent of control activity; higher = less effect of the substance). Conditions: 50 µM.
Parameters: single well
Procedure, shortened: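 Single-point screen at 50 µmol/L in CHO-hSGLT1 cells, with 160 µmol/L 1-NBD-glucose in glucose-free DMEM for 90 min at 37°C. Fluorescence from isopropanol extracts was calibrated, and CHO wild-type uptake was subtracted. Data are percent of uptake without compound.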

Chain of human SGLT1 (hSGLT1) (P13866 whole entry, looked up): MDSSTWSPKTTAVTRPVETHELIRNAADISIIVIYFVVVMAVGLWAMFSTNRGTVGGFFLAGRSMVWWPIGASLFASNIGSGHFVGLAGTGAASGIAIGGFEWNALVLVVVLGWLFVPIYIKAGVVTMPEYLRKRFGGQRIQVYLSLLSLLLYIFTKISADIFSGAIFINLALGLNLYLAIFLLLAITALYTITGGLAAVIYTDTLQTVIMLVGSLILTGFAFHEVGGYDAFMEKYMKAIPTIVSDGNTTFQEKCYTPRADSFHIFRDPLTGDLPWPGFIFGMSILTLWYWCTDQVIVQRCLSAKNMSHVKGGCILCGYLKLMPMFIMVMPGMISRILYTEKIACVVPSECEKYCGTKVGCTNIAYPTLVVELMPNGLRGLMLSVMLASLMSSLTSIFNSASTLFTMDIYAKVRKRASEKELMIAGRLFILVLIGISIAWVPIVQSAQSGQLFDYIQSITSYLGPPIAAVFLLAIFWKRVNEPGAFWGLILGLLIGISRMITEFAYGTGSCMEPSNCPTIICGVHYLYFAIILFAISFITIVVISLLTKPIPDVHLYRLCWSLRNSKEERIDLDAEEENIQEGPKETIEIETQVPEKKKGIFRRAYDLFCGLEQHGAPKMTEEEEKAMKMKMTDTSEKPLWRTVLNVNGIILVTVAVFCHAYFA

Structure (SMILES) | NORMALIZED SGLT1 ACTIVITY (%)
COc1ccc2c(c1)c(CC(=O)OCC(=O)O)c(C)n2C(=O)c1ccc(Cl)cc1 | 128
O=c1[nH]c(=O)n([C@H]2C[C@H](O)[C@@H](CO)O2)cc1F | 122
N#Cc1ccc2c(c1)N(CCCN1CCC(O)CC1)c1ccccc1S2 | 75
Nc1ccc(C(=O)Oc2ccccc2)c(O)c1 | 175
N#Cc1c(Cl)c(Cl)c(Cl)c(C#N)c1Cl | 76
C[C@@H]1CC[C@@]2(OC1)OC1C(O)C3C4CC[C@H]5C[C@H](O[C@@H]6O[C@H](CO)[C@H](O[C@@H]7O[C@H](CO)[C@@H](O)[C@H](O[C@@H]8OC[C@@H](O)[C@H](O)[C@H]8O)[C@H]7O[C@@H]7O[C@H](CO)[C@H](O)[C@H](O[C@@H]8O[C@H](CO)[C@@H](O)[C@H](O)[C@H]8O)[C@H]7O)[C@H](O)[C@H]6O)[C@H](O)C[C@]5(C)C4CC[C@]3(C)C1[C@@H]2C (stereo partly shown) | 76
COC(=O)c1c(Cl)c(Cl)c(C(=O)OC)c(Cl)c1Cl | 107
CCn1cc(C(=O)O)c(=O)c2cc3c(cc21)OCO3 | 204
CCCc1nc(C(C)(C)O)c(C(=O)OCc2oc(=O)oc2C)n1Cc1ccc(-c2ccccc2-c2nn[nH]n2)cc1 | 208
CC(C)CCCC(C)[C@H]1CCC2C3CC=C4CC(=O)CC[C@]4(C)C3CC[C@@]21C (stereo partly shown) | 159
S=c1[nH]cnc2nc[nH]c12 | 103
CC(=O)CC(c1ccccc1)c1c(O)c2ccccc2oc1=O (stereo not shown) | 134
COc1c(O)cc2c(c1O)[C@@H]1O[C@H](CO)[C@@H](O)[C@H](O)[C@H]1OC2=O.O | 81
COC(=O)c1c(OC)cc2c(c1C)Oc1c(Cl)c(OC(C)=O)c(Cl)c(C)c1C(=O)O2 | 279
O=C(Cc1ccccc1)NO | 95
CC(=O)O.CSCCC(N)C(=O)NC(CC(C)C)C(=O)NC(Cc1ccccc1)C(=O)O (stereo not shown) | 154
NC/C=C/C(=O)O | 114
CS(=O)(=O)[O-].C[n+]1ccccc1/C=N/O | 121
Oc1c(Cl)c(Cl)c(Cl)c(Cl)c1Cl | 622
CC(C)NCC(O)c1ccc(O)c(O)c1.Cl (stereo not shown) | 140
CC(C)CC(NC(=O)C(Cc1ccccc1)NC(=O)CNC(=O)CNC(=O)C(N)Cc1ccc(O)cc1)C(=O)O (stereo not shown) | 158
Nc1nc2ncc(=O)[nH]c2c(=O)[nH]1 | 94
CC(C)N(C(=O)SCC(Cl)=C(Cl)Cl)C(C)C | 98

Structure (SMILES) | NORMALIZED SGLT1 ACTIVITY (%)
CCCC(C)C1(CC)C(=O)N=C([S-])NC1=O.[Na+] (stereo not shown) | 143
COc1ccc(C2Sc3ccccc3N(CCN(C)C)C(=O)C2OC(C)=O)cc1.Cl (stereo not shown) | 70
COc1ccccc1OCC(O)CN1CCN(CC(=O)Nc2c(C)cccc2C)CC1 (stereo not shown) | 141
C=C1C(=O)O[C@@H]2C[C@@]3(C)CCC[C@H](C)C3=C[C@H]12 | 104
COc1c(-c2coc3cc4c(cc3c2=O)CC(OC(C)=O)C(C)(C)O4)ccc2c1C=CC(C)(C)O2 (stereo not shown) | 308
Cl.Clc1cccc(Cl)c1N=C1NCCN1 | 130
CC1=C(C(=O)O)N2C(=O)[C@@H](NC(=O)C(N)c3ccccc3)[C@H]2SC1 (stereo partly shown) | 85
COc1ccc2c(c1)OC[C@@H](Cc1ccc(OC)c(OC)c1)[C@H]2O | 78
CC(C)[C@@H]1CC[C@@H](C)C[C@H]1O | 116
O=c1cc(-c2ccc(O)cc2)oc2cc(O[C@@H]3O[C@H](CO)[C@@H](O)[C@H](O)[C@H]3O[C@@H]3OC[C@](O)(CO)[C@H]3O)cc(O)c12 | 127
O=C(/C=C/c1ccc(O)c(O)c1)O[C@@H]1C[C@](O)(C(=O)O)C[C@@H](O)[C@H]1O | 132
C[C@]12CC(=O)C3C(CC[C@@H]4C[C@H](O)CC[C@]34C)C1CC[C@]2(O)C(=O)CO (stereo partly shown) | 90
CCOC(=O)[C@H](CCc1ccccc1)N[C@@H](C)C(=O)N1[C@H](C(=O)O)C[C@H]2CCCC[C@@H]21 | 113
CCC(c1ccc(O)cc1)C(CC)c1ccc(O)cc1 (stereo not shown) | 63
CC[C@H](/C=C/C(C)C1CCC2C3CCC4=CC(=O)CC[C@]4(C)C3CC[C@]12C)C(C)C (stereo partly shown) | 126
COc1ccc2cc(CCC(C)=O)ccc2c1 | 206
N[C@H](Cc1ccccc1)C(=O)O | 88
NC(N)=O | 96
CNC(C)[C@H](O)c1ccccc1.Cl (stereo partly shown) | 106
N[C@H](C(=O)O)[C@@H]1CC(Cl)=NO1 | 89
CC(C)c1c(O)ccc2c1CCC1[C@@](C)(C=O)CCC[C@]21C (stereo partly shown) | 96
C#C[C@]1(O)CCC2C3CCC4=CC(=O)CC[C@@H]4C3CC[C@@]21C (stereo partly shown) | 108
CN/C(=N\C#N)NCCSCc1nc[nH]c1C | 114

Structure (SMILES) | NORMALIZED SGLT1 ACTIVITY (%)
Cc1nc(C)c(Cl)c(O)c1Cl | 138
Cc1c(C(N)=O)cc([N+](=O)[O-])cc1[N+](=O)[O-] | 125
Cc1occc(=O)c1O | 52
CC(N)CO (stereo in doubt) | 126
C[C@]12CCC(=O)C=C1CCC1C2[C@@H](O)C[C@@]2(C)C1CC[C@]2(O)C(=O)CO (stereo partly shown) | 101
O=S(=O)([O-])CCS.[Na+] | 118
CC(CN1c2ccccc2Sc2ccccc21)N(C)C.Cl (stereo not shown) | 87
Cn1cnc2c1c(=O)[nH]c(=O)n2C | 123
CS(=O)(=O)c1ccc([C@@H](O)[C@@H](CO)NC(=O)C(Cl)Cl)cc1 | 86
COC(=O)[C@@H]1OC(=O)[C@H]2O[C@@]23[C@@]1(C)CCC1[C@@]2(C)CCC(=O)C(C)(C)C2C[C@@H](OC(C)=O)[C@]13C (stereo partly shown) | 159
C=C1C2=CC(=O)O[C@@H](c3ccoc3)[C@]2(C)CCC1[C@@]1(C)C=CC(=O)C(C)(C)[C@@H]1CC(=O)OC (stereo partly shown) | 95
CC(CN(C)C)CN1c2ccccc2CCc2ccccc21.O=C(O)/C=C\C(=O)O (stereo not shown) | 51
COc1ccc(C(=O)O)cc1OC | 200
Cc1cc(/C=C/c2ccc3cc(N(C)C)ccc3[n+]2C)c(C)n1-c1ccccc1.O=C([O-])c1cc2ccccc2c(Cc2c(O)c(C(=O)O)cc3ccccc23)c1O | 275
CC(=O)OC1CC[C@@]2(C)C(CC[C@]3(C)C2CCC2C4CC(C)(C)CCC4(C(=O)O)CC[C@]23C)C1(C)C (stereo partly shown) | 107
CC(=O)O[C@@H]1CC2C(C)(C)C=CC(=O)[C@]2(C)C2CC[C@@]3(C)[C@H](c4ccoc4)OC(=O)[C@H]4O[C@]43[C@@]21C (stereo partly shown) | 219
COc1ccc(-c2cc(=O)c3c(OC)c(OC)c(OC)c(OC)c3o2)cc1 | 257
CC1=C(O)C(=O)C=C2C1=CC=C1[C@@]2(C)CC[C@@]2(C)[C@@H]3C[C@](C)(C(=O)O)CC[C@]3(C)CC[C@]12C | 174
OC[C@H]1O[C@@H](n2cnc3c(O)ncnc32)[C@H](O)[C@@H]1O | 112
CC(=O)OC[C@@]1(O)C[C@@]23CC[C@@H]4c5ccoc5CC[C@@]4(C)[C@@H]2CC[C@@H]1C3 | 119
C[n+]1cccc(C(=O)[O-])c1 | 101
CCOCN(C(=O)CCl)c1c(C)cccc1CC | 86
COP(=O)(OC)OC(Br)C(Cl)(Cl)Br (stereo not shown) | 109

Structure (SMILES) | NORMALIZED SGLT1 ACTIVITY (%)
COc1ccc2c(=O)c(CC(=O)O)coc2c1 | 176
COc1cc2c(cc1OC)C1Cc3ccc(OC)c(OC)c3CN1CC2 (stereo not shown) | 150
CC1(C)CC[C@]2(C)CC[C@]3(C)C(=CCC4[C@@]5(C)CC[C@H](O)C(C)(C)C5CC[C@]43C)C2C1 (stereo partly shown) | 91
C#CCCCCCCCCCCCC(O)CC(O)COC(C)=O.C=CCCCCCCCCCCCC(O)CC(O)COC(C)=O (stereo not shown) | 197
COc1ccc(-c2cc(=O)c3ccc(OC)cc3o2)cc1 | 182
NCC(CC(=O)O)c1ccc(Cl)s1 (stereo not shown) | 93
O[C@H]1[C@H](O)[C@@H](O)C2OC[C@H]1O2 | 78
CC(=O)O[C@H]1C[C@@H](OC(C)=O)C(C)(C)C2C[C@@H](OC(C)=O)[C@@]3(C)C4=CC(=O)O[C@@H](c5ccoc5)[C@]4(C)CCC3[C@]21C (stereo partly shown) | 99
CC(=O)OCC[N+](C)(C)C.[Cl-] | 115
C=C(C)C1CC=C(CO)CC1 (stereo not shown) | 162
Cc1ccc(C(C)C)cc2c(C)ccc1-2 | 133
Nc1ncn([C@@H]2O[C@H](CO)[C@@H](O)[C@H]2O)c(=O)n1 | 135
COc1cccc(OC)c1OCCNCC1COc2ccccc2O1.Cl (stereo not shown) | 72
O=C(Cc1cccs1)N[C@@H]1C(=O)N2C(C(=O)[O-])=C(C[n+]3ccccc3)CS[C@H]12 | 136
C[C@@H]1O[C@@H](O[C@H]2[C@@H](Oc3cc(O)c4c(c3)O[C@H](c3ccc(O)cc3)CC4=O)O[C@H](CO)[C@@H](O)[C@@H]2O)[C@H](O)[C@H](O)[C@H]1O | 112
Cl.c1ccc2c(CC3=NCCN3)cccc2c1 | 112
C[C@]12CCC(=O)C=C1CC[C@@H]1[C@@H]2[C@@H](O)C[C@@]2(C)[C@H]1CC[C@]2(O)C(=O)COC(=O)CCC(=O)O | 110
COc1ccc(CCN2CCC(Nc3nc4ccccc4n3Cc3ccc(F)cc3)CC2)cc1 | 134
COc1cc(O)c2c(=O)c(O)c(-c3ccc(O)c(O)c3)oc2c1 | 243
NC(CO)(CO)CO.O=C(c1ccccc1)c1ccc2n1CCC2C(=O)O (stereo not shown) | 143
COc1cc2c(cc1O)[C@@H](Cc1ccc(O)cc1)[N+](C)(C)CC2.[I-] | 95
O=C(Oc1cc(O)cc2c1C[C@@H](OC(=O)c1cc(O)c(O)c(O)c1)[C@@H](c1cc(O)c(O)c(O)c1)O2)c1cc(O)c(O)c(O)c1 | 117
